# Assay results reported in paper PMC11644009 (Molecules, 2024).
# Experiments:
# [1] = system: influenza virus A/Almaty/8/98 (H3N2); assay: Virus inhibitory activity on chicken embryo model (chemical therapeutic index); conditions: samples 0.0016%–0.2% (0.003–0.4 mg per chicken embryo), Rimantadine 10 µg/mL, Tamiflu 6 µg/mL
# [2] = system: neuraminidase activity of influenza virus A/Almaty/8/98 (H3N2); assay: Effect on neuraminidase activity (fluorescent kit); conditions: maximum dose 1 mg/100 μL
# [3] = system: influenza virus A/Almaty/8/98 (H3N2); conditions: compound 0.2%, 0.4 mg/ch.e. (8 mg/kg)
Compound,Chemical Therapeutic Index of the Studied Sample [1],Suppression of neuraminidase activity [2],"Decrease in Influenza Virus Infectivity Titer, lg [3]"
"COc1ccc(-c2cn(C[C@@H]3CCCN4CCCC[C@H]34)nn2)cc1 [Compound 1, (1S,9aR)-1-{[4-(4-Methoxyphenyl)-1H-1,2,3-triazol-1-yl]methyl}octahydro-2H-quinolizine]",65.0,,
"CCOC(=O)C1=C[C@@H](OC(CC)CC)[C@H](NC(C)=O)[C@@H](N)C1 [Tamiflu, (3R,4R,5S)-4-acetylamino-5-amino-3-(1-ethylpropoxy)-1-cyclohexene-1-carboxylic acid ethyl ether, phosphate, reference compound]",10.3,,
"CCc1cc(C(=O)OCc2cn(C[C@@H]3CCCN4CCCC[C@H]34)nn2)c(O)c(C(C)(C)C)c1 [Compound 5, {1-[((1S,9aR)-Octahydro-2H-quinolizin-1-yl)methyl]-1H-1,2,3-triazol-4-yl}methyl-3-tert-butyl-2-hydroxy-5-ethylbenzoate]",>100.0,no more than 40%,
"O=Cc1ccc(OCc2cn(C[C@@H]3CCCN4CCCC[C@H]34)nn2)cc1 [Compound 4, 4-({1-[((1S,9aR)-Octahydro-2H-quinolizin-1-yl)methyl]-1H-1,2,3-triazol-4-yl}methoxy)benzaldehyde]",50.0,no more than 40%,
"CC(N)C12CC3CC(CC(C3)C1)C2 (stereo not drawn) [Rimantadine, alpha-methyltricyclo[3.3.1.1/.7]decan-1-methanamine, reference compound]",29.9,,
"Cc1cccc(-c2cn(C[C@@H]3CCCN4CCCC[C@H]34)nn2)c1 [Compound 2, (1S,9aR)-1-{[4-(m-Tolyl)-1H-1,2,3-triazol-1-yl]methyl}octahydro-2H-quinolizine]",65.0,,0.75 lg
"c1ccc(-c2cn(C[C@@H]3CCCN4CCCC[C@H]34)nn2)cc1 [Compound 3, (1S,9aR)-1-[(4-Phenyl-1H-1,2,3-triazol-1-yl)methyl]octahydro-2H-quinolizine]",8.0,,0.0 lg
